{"source": "paper PMC12136788", "binders": {"B1": {"name": "chr12:6965580:6965681:-|3pUTR|ENSG00000215021|unk|FALSE|unique (ssRNA)", "RNA": "GGGAGUUCUACAGUCCGACGAUCGUCAUUAUCUAUCUUUUUUUUCCUACAGUGACAGCCUCAUCAAGGGUAAGAAAUGAGCCUAGUCACCAAGAACUCCACCCCCAGAGGAAGUGGAUCUGCUUCUCCAGUUUUUGAGGAGCCCAACAGAGGAUUGAGCAUCA"}, "B2": {"name": "chr4:173248057:173248158:+|CDS|ENSG00000109586|unk|FALSE|bound_elsewhere (ssRNA)", "RNA": "GGGAGUUCUACAGUCCGACGAUCUUCAAACCUGUGGUACCAUGGCCUCAUGUUGAAGGAGUAGAAGUGGACUUAGAGUCUAUUAGAAGAAUAAACAAGGCCAAAAAUGAACAAGAGCACCAUGCUGGAGGAGAUUCCCAGAAACAACAGAGGAUUGAGCAUCA"}, "B3": {"name": "chr16:57758216:57758909:-|three_prime_utr|ENSG00000140859|control|control|control (ssRNA)", "RNA": "GGGAGUUCUACAGUCCGACGAUCGGGCCUGAAGCUGGGCCCUCACUGGCCUGUCCCUGCUGCAGCGCCAGGACCCCCGGAGGUAGAGGCGAGAGUGGAGGCUCUUCUUCUGCCCCGUCUCCCCUCAAAGAUGAGAAACAUGUUCAACAGAGGAUUGAGCAUCA"}, "B4": {"name": "chr8:52158897:52159109:-|CDS|ENSG00000147488|control|control|control (ssRNA)", "RNA": "GGGAGUUCUACAGUCCGACGAUCCCAGAGCCCUGGCCGUGCCAGCUCUUAUAGCUACGGUCAAUGUAGUGAAGACACCCACAUAGCAGCAGCUGCUGCCAUCCUGAACCUUUCCACCCGCUGCAGGGAAGCCACAGACAUCCUCAACAGAGGAUUGAGCAUCA"}, "B5": {"name": "chr7:137014887:137014989:+|CDS|ENSG00000181072|unk|total|mutant (ssRNA)", "RNA": "GGGAGUUCUACAGUCCGACGAUCGCUACUUGGCUACUGAUCCGAGAACGCAAAAUGAAUAACUCAACAAACUCCUCUAACAACCGCCUGGCUCUUACAAGUCCUUAUAAGACAUUUGAAGUGGUGUUUAUUGUCCUGGUGGCUCAACAGAGGAUUGAGCAUCA"}, "B6": {"name": "chr1:173734013:173734119:+|CDS|ENSG00000076321|unk|total|mutant (ssRNA)", "RNA": "GGGAGUUCUACAGUCCGACGAUCCAUUGACGAGAGGGCUAUGGAAUUACUGAUUGACUUUGCGUAUACCUCCCAGAUAACAGCCGAAGAGGGCAAUGUUCAGACUCUUCUGCCAGCUGCUUGCCUCCUCCAGCUGGCAGAAAUCAACAGAGGAUUGAGCAUCA"}, "B7": {"name": "chr10:75397829:75398748:-|three_prime_utr|ENSG00000165655|control|control|control (ssRNA)", "RNA": "GGGAGUUCUACAGUCCGACGAUCCACUUUCACCUCCCCACCCAAACUUUAUAAAAGUUGAAAAAAUAUCAUUUGACUUUUUAUAGAAAAAAAAAGGAAAAAAUAAUUGAGAAAGUGUUCAUCUGAGGACUGCAUCGGUGGACACAACAGAGGAUUGAGCAUCA"}, "B8": {"name": "chr3:112140897:112141281:-|three_prime_utr|ENSG00000172139|control|control|control (ssRNA)", "RNA": "GGGAGUUCUACAGUCCGACGAUCACUUUUUGCAAAAUUUCCUUGAUUUAAAAUAUUUGUUAUUUUAAAUAUACAAAACAUUUUAGAAAAUCUUAGAGUAAAUUUUAGUCUUAAAGCCAGAAAAUAAGUUUAUAGCCAUCUAGACAACAGAGGAUUGAGCAUCA"}, "B9": {"name": "ENSG00000198589:be:win_1101|CDS|ENSG00000198589|bound_else_gene|NA|bound_elsewhere_windowed (ssRNA)", "RNA": "GGGAGUUCUACAGUCCGACGAUCCAGUGAAGCUCUAAAUGCAGCUCAGAUAUUUGCUAUUUAUCAGUUGGGCCUGGGAUACAAGGGUACAUUUAAAUUCAAAGCAGAAAGCGACCUUUUCCUUGCUGAGCAUCACAAACUUUUCAACAGAGGAUUGAGCAUCA"}, "B10": {"name": "chr18:55226207:55226308:-|3pUTR|ENSG00000196628|unk|FALSE|unique (ssRNA)", "RNA": "GGGAGUUCUACAGUCCGACGAUCAUUUUUACAGCCACACAAUUCUUGGCAUGUAUUAAGAAAAAAAAAAAUCCCUGUUCAAGUAGUUUUUCCACCUAUCAGCACUGAGUAAAUGCCAUAAAUCCAUUGAAAUGGUCUAAAUGUCAACAGAGGAUUGAGCAUCA"}, "B11": {"name": "chr5:36975901:36976008:+|CDS|ENSG00000164190|unk|FALSE|unique (ssRNA)", "RNA": "GGGAGUUCUACAGUCCGACGAUCAUGAAAUUAGGCAAGGAUGAAAAAGAGCAGAGUGAGAAAGCGGCAAUGUAUGAUAUAAUUAGUUCUCCAUCCAAGGACUCUACUAAACUUACAUUAAGACUUUCUCGUGUAAGGUCUUCACAACAGAGGAUUGAGCAUCA"}, "B12": {"name": "ENSG00000198589:be:win_3001|CDS|ENSG00000198589|bound_else_gene|NA|bound_elsewhere_windowed (ssRNA)", "RNA": "GGGAGUUCUACAGUCCGACGAUCCUAGAAUCUGCAUCUAAUAUUGAACUGCAAACUACUAAUACAUCUUAUGAAGAAAUGAAAGCUGAGCAAGAAAAUCAGGAGUUACCAGAUGAAGGCACUUUGGAAGAAACACUGACAAAUCAACAGAGGAUUGAGCAUCA"}, "B13": {"name": "ENSG00000080224:stop:overlap|stop_codon|ENSG00000080224|stop_codon|NA|stop_codon (ssRNA)", "RNA": "GGGAGUUCUACAGUCCGACGAUCGUACAGGAUAUGAAGAAAUUGAGGGUUCUUGCCAUGGAGCCUCCAAAGGCCGCUGCUUCUAGUUGGCCAUCUUGGCCCCACCCCGAAACAGUAACCUUUGAAGAAUAAAAGAAAAAGCAACAACAGAGGAUUGAGCAUCA"}, "B14": {"name": "chr16:55506527:55506628:+|3pUTR|ENSG00000087245|msi1|total|mutant (ssRNA)", "RNA": "GGGAGUUCUACAGUCCGACGAUCUAUCAGUUUUAAUGCUACUACUAACAAUGAACAGUAACAAUAAUAUCCCCCUCAAUUAACCGAGUGCUUUCUAUGUGCAAGGCACUUUUCACGUGUCACCUAUUUUAACCUUUCCAACCACAACAGAGGAUUGAGCAUCA"}, "B15": {"name": "chr2:24000049:24000165:+|3pUTR|ENSG00000173960|unk|FALSE|unique (ssRNA)", "RNA": "GGGAGUUCUACAGUCCGACGAUCGUAGCAUAUGACUGGAAACUAUAUUCAGUGCACUUUCUCCAAAAGACUACCCAGAAAAAUAGACUUAUUUUCAAAUACCAGUUAUCAAGAUAUAUUAAAUAGCUGUAUUGUUUAGAAUCUCAACAGAGGAUUGAGCAUCA"}, "B16": {"name": "chr7:88197266:88197367:+|3pUTR|ENSG00000008277|unk|FALSE|unique (ssRNA)", "RNA": "GGGAGUUCUACAGUCCGACGAUCCAAAACAUGUGAUAUCCCUUUAACCUGUGCACAGUCUGGAGGCAGUUUUAUUGAGUGAGUAGUUGAGUGAGAGAACAAAAUGCCCAGCAAAACUUCUGGCCUCCACAGUUUGCUGAUGCACAACAGAGGAUUGAGCAUCA"}, "B17": {"name": "chr11:2928445:2928542:-|3pUTR|ENSG00000181649|msi1_unk|total|mutant (ssRNA)", "RNA": "GGGAGUUCUACAGUCCGACGAUCAUUGGACUAUCUAAUAUCUAUGUAUUUAUUUCGCUGGUUCUUUGCCGUCACAUAUUUUACCGUCUUAAUAUCUUGUUUUUGCAUCACUGUGCCCAUUGCAAAUAAAUCACUUGGCCAGUUCAACAGAGGAUUGAGCAUCA"}, "B18": {"name": "chr16:57253408:57253449:+|3pUTR|ENSG00000102931|msi1_unk|FALSE|overlapping (ssRNA)", "RNA": "GGGAGUUCUACAGUCCGACGAUCUGUGUGGUAGAUUACUUAUCAGAAAACAUAUAUGUCAUCUCUAGAACGAAGAAAAAGCAUAGUAGUUCAAUUCCCAGUGUGUCCCUUUGAUUUUUUUUUUUUAAUAGUAAAAAUAAGAAUCAACAGAGGAUUGAGCAUCA"}, "B19": {"name": "chr6:109506326:109506547:-|CDS|ENSG00000155085|control|control|control (ssRNA)", "RNA": "GGGAGUUCUACAGUCCGACGAUCAAUAGUGCACAAAUUGUAGCUGUCAAUAAUGUAAAGUAUCGCAAAAAUAUUGGUGAGAUUAGGCAAUAUUAUCAAGAACAGCAUCAGAACUGGUAUGUGAUUGAUGGAUUUCACAGCAAACAACAGAGGAUUGAGCAUCA"}, "B20": {"name": "ENSG00000136451:be:win_2851|3pUTR|ENSG00000136451|bound_else_gene|NA|bound_elsewhere_windowed (ssRNA)", "RNA": "GGGAGUUCUACAGUCCGACGAUCAUUUUAUCUCUGUACAUAAAGUAGAAACCAAAAGCUAGGGAAACAGAUACUCUUUACACCAUCAUGCCACGCAUUGUUUUUAAAGCAUUGCGUUAAAAAAAAAAUUAACUAAACCAAGAUCAACAGAGGAUUGAGCAUCA"}, "B21": {"name": "chr2:25742488:25742589:-|CDS|ENSG00000143970|unk|total|mutant (ssRNA)", "RNA": "GGGAGUUCUACAGUCCGACGAUCCACUUUAAGUAAGGAGAAUUACCUGUUCACCCGAGGCCAAACAUUUGAUGAAAAGACCCCCGCCAGAGAUUUAAUUCAGGCAGCACAGAAGCAGAUGGCUCAUGCAGUGAGAGGUAAGGCCAACAGAGGAUUGAGCAUCA"}, "B22": {"name": "chr9:127087347:127088938:-|three_prime_utr|ENSG00000136859|control|control|control (ssRNA)", "RNA": "GGGAGUUCUACAGUCCGACGAUCAUAUACAUGUGUAUGAGCCUCCCUUGUGCACGUAUGUGUAUACCACAUAUAUAUGCAUUUAGAUAUACAUCACAUGUGAUAUAUCUAGAUCCAUAUAUAGGUUUGCCUUAGAUACCUAAACAACAGAGGAUUGAGCAUCA"}}, "note": "Some of the results follow.", "data": [{"molecular_target": "MSI1 full-length (mouse, UniProt Q61474 1-362)", "sequence (Q61474 whole entry)": "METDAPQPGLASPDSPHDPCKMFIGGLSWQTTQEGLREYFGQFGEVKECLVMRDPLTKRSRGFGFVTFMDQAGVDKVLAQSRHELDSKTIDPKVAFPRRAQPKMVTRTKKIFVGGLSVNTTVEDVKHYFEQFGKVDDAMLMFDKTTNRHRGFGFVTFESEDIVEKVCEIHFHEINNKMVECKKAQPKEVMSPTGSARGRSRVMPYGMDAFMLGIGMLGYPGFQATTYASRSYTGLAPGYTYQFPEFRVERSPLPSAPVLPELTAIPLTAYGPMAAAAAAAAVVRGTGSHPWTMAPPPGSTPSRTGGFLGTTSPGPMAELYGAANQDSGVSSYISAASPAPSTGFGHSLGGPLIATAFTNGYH", "experiment": "nsRBNS (natural sequence RNA bind-n-seq); RBNS binding buffer (assumed for nsRBNS): 25 mM Tris pH 7.5, 150 mM KCl, 3 mM MgCl2, 0.01% Triton X-100, 500 ug/ml BSA, 20 U/ml SUPERase-In, 4 C; UNK is unkempt and MSI1 is Musashi-1; names of the RNAs are library labels; protein concentration not given here; high values mean tight binding", "units": {"binding signal": "enrichment R"}, "values": [{"binder": "B1", "binding signal": 1.07}, {"binder": "B2", "binding signal": 6.27}, {"binder": "B3", "binding signal": 0.392}, {"binder": "B4", "binding signal": 0.862}, {"binder": "B5", "binding signal": 0.305}, {"binder": "B6", "binding signal": 0.492}, {"binder": "B7", "binding signal": 0.554}, {"binder": "B8", "binding signal": 14.9}, {"binder": "B9", "binding signal": 0.395}, {"binder": "B10", "binding signal": 0.374}, {"binder": "B11", "binding signal": 0.703}, {"binder": "B12", "binding signal": 0.527}, {"binder": "B13", "binding signal": 0.769}, {"binder": "B14", "binding signal": 4.38}, {"binder": "B15", "binding signal": 3.66}, {"binder": "B16", "binding signal": 1.66}, {"binder": "B17", "binding signal": 1.82}, {"binder": "B18", "binding signal": 21}, {"binder": "B19", "binding signal": 1.91}, {"binder": "B20", "binding signal": 8.02}, {"binder": "B21", "binding signal": 0.51}, {"binder": "B22", "binding signal": 0.269}]}]}
